These results are taken from the supplement of paper PMC12423691.

B1: FOXA1, P55317 (protein)
chain: MLGTVKMEGHETSDWNSYYADTQEAYSSVPVSNMNSGLGSMNSMNTYMTMNTMTTSGNMTPASFNMSYANPGLGAGLSPGAVAGMPGGSAGAMNSMTAAGVTAMGTALSPSGMGAMGAQQAASMNGLGPYAAAMNPCMSPMAYAPSNLGRSRAGGGGDAKTFKRSYPHAKPPYSYISLITMAIQQAPSKMLTLSEIYQWIMDLFPYYRQNQQRWQNSIRHSLSFNDCFVKVARSPDKPGKGSYWTLHPDSGNMFENGCYLRRQKRFKCEKQPGAGGGGGSGSGGSGAKGGPESRKDPSGASNPSADSPLHRGVHGKTGQLEGAPAPGPAASPQTLDHSGATATGGASELKTPASSTAPPISSGPGALASVPASHPAHGLAPHESQLHLKGDPHYSFNHPFSINNLMSSSEQQHKLDFKAYEQALQYSPYGSTLPASLPLGSASVTTRSPIEPSALEPAYYQGVYSRPVLNTS
B2: TAF3, Q5VWG9 (protein)
chain: MCESYSRSLLRVSVAQICQALGWDSVQLSACHLLTDVLQRYLQQLGRGCHRYSELYGRTDPILDDVGEAFQLMGVSLHELEDYIHNIEPVTFPHQIPSFPVSKNNVLQFPQPGSKDAEERKEYIPDYLPPIVSSQEEEEEEQVPTDGGTSAEAMQVPLEEDDELEEEEIINDENFLGKRPLDSPEAEELPAMKRPRLLSTKGDTLDVVLLEAREPLSSINTQKIPPMLSPVHVQDSTDLAPPSPEPPMLAPVAKSQMPTAKPLETKSFTPKTKTKTSSPGQKTKSPKTAQSPAMVGSPIRSPKTVSKEKKSPGRSKSPKSPKSPKVTTHIPQTPVRPETPNRTPSATLSEKISKETIQVKQIQTPPDAGKLNSENQPKKAVVADKTIEASIDAVIARACAEREPDPFEFSSGSESEGDIFTSPKRISGPECTTPKASTSANNFTKSGSTPLPLSGGTSSSDNSWTMDASIDEVVRKAKLGTPSNMPPNFPYISSPSVSPPTPEPLHKVYEEKTKLPSSVEVKKKLKKELKTKMKKKEKQRDREREKDKNKDKSKEKDKVKEKEKDKETGRETKYPWKEFLKEEEADPYKFKIKEFEDVDPKVKLKDGLVRKEKEKHKDKKKDREKGKKDKDKREKEKVKDKGREDKMKAPAPPLVLPPKELALPLFSPATASRVPAMLPSLLPVLPEKLFEEKEKVKEKEKKKDKKEKKKKKEKEKEKKEKEREKEKREREKREKEKEKHKHEKIKVEPVALAPSPVIPRLTLRVGAGQDKIVISKVVPAPEAKPAPSQNRPKTPPPAPAPAPGPMLVSPAPVPLPLLAQAAAGPALLPSPGPAASGASAKAPVRSVVTETVSTYVIRDEWGNQIWICPGCNKPDDGSPMIGCDDCDDWYHWPCVGIMTAPPEEMQWFCPKCANKKKDKKHKKRKHRAH

The other results are listed elsewhere or left out. Binding of human transcription factors and regulators to the viral nucleoprotein by AlphaScreen, crude cell-free proteins, amounts not normalised, one pass. Fold of the Venus control; higher = more signal. No active / inactive call. Single-pass screen; sequences are the whole Swiss-Prot entries looked up by name.

For the experiment, the target named is nucleoprotein N of Crimean-Congo hemorrhagic fever virus. Nature of the experiment: AlphaScreen luminescence signal relative to Venus negative control (fold); higher = stronger binding to CCHFV N. Here is the method: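 AlphaScreen binding of cell-free made, FLAG-GST-tagged human transcription factors and regulators (crude translation products) to biotinylated N protein; signal as fold of the FLAG-GST-Venus control. One pass.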
On the technique in general: In Alpha technology, singlet oxygen from a donor bead excites a nearby acceptor bead.
B1: the AlphaScreen luminescence signal was 2.28.

B2 had an AlphaScreen luminescence signal of 18.3.
